This is an account of results in the antibiotic and cytotoxicity screens of Wong et al. (2023).

The other results are listed elsewhere or left out.

The subject of one experiment is HSkMC (human skeletal muscle cells). The experiment is described as follows: cytotoxicity call (relative viability < 0.9). The note with it: 10 µM.
Regarding `CC(C)=CCCC1(C)C=Cc2c(O)c3c(c(CC=C(C)C)c2O1)OC12C(=CC4CC1C(C)(C)OC2(CC=C(C)C(=O)O)C4=O)C3=O` (stereo not drawn), the cytotoxicity call was “active”.
On the same count and under the same terms, the same measure for `CN(C)[C@@H](CN)c1cn(C)c2ccccc12`: “inactive”.
On the same count and under the same terms, the same measure for `CC(O)CN1CCN(CC(=O)[O-])CCN(CC(=O)[O-])CCN(CC(=O)[O-])CC1.[Gd+3]` (stereo not drawn): “inactive”.
The same measure, in the same setting: the same measure for `NNc1ccn([C@H]2O[C@@H](CO)[C@@H](O)[C@@H]2O)c(=O)n1`: “inactive”.
Regarding `O=C(O)CNCP(=O)(O)O`, the cytotoxicity call was “inactive”.
Same read-out and setting: the value for `C[C@@H](N)[C@@H](O)c1ccccc1` was “inactive”.
The same measure, in the same setting: the value for `NC[C@@H](CS(=O)(=O)O)c1ccc(Cl)cc1` was “inactive”.
Same read-out and setting: the value for `N#C[C@]1(O)CN2CCC1CC2` was “inactive”.
With `ClC1C(Cl)C(Cl)C(Cl)C(Cl)C1Cl` (stereo not drawn), the cytotoxicity call was “inactive”.
The same measure, in the same setting: the value for `C[C@@H]1O[C@@H](O[C@@H]2C[C@@H](O)[C@]3(CO)[C@H]4[C@H](O)C[C@]5(C)[C@@H](C6=CC(=O)OC6)CC[C@]5(O)[C@@H]4CC[C@]3(O)C2)[C@H](O)[C@H](O)[C@H]1O` was “active”; that for `CN1C[C@H]2CN[C@H]2C1` was “inactive”; that for `CN1C(=O)/C(=C/c2cn(CC(=O)N3CCOCC3)c3ccccc23)C(=O)NC1=S` was “inactive”.
On the same count and under the same terms, the value for `COC(=O)[C@]1(Cc2ccccc2N=[N+]=[N-])N=C(c2ccc(OCCCO)cc2)O[C@@H]1c1ccccc1N=[N+]=[N-]` was “active”.
On the same count and under the same terms, the same measure for `C=CCOC(Cn1ccnc1)c1ccc(Cl)cc1Cl.O=S(=O)(O)O` (stereo not drawn): “inactive”.
Turning to `COc1ccc2cc(CCN)c(=O)[nH]c2c1`, the cytotoxicity call is “inactive”.
As to `CC1=CC(=O)c2c(O)cccc2C1=O`, the cytotoxicity call was “active”.
Still for that read-out and setting: the value for `O=c1[n-]c(=O)n(Cl)c(=O)n1Cl.[Na+]` was “inactive”; that for `CC(C)c1ccc2c(c1O)CCC1C3=C(CCC21C)C(=O)OC3` (stereo not drawn) was “inactive”.
Still for that read-out and setting: the value for `Cc1nc(N2CCN(C)CC2)ccc1N` was “inactive”.
With `NC(=O)CN1C[C@@H](O)CC1=O`, the cytotoxicity call was “inactive”.
As to `C[C@H]1CN([C@@H](C)CO)C(=O)CCCn2cc(nn2)CO[C@H]1CN(C)C(=O)Oc1cccc2ccccc12`, the cytotoxicity call is “inactive”.
Consider `COC(=O)C1CC(OC(C)=O)C(=O)C2C1(C)CCC1C(=O)OC(c3ccoc3)CC12C` (stereo not drawn), for which the cytotoxicity call was “inactive”.
Same read-out and setting: the value for `Br.CN1C2CC(OC(=O)C(CO)c3ccccc3)CC1C1OC12` (stereo not drawn) was “inactive”; that for `C[C@@H]1CN([C@@H](C)CO)C(=O)CCCn2cc(nn2)CO[C@@H]1CN(C)C(=O)Oc1ccc2ccccc2c1` was “inactive”.
On the same count and under the same terms, the value for `C1CCN(C[C@H]2CO[C@]3(CNCCOC3)C2)C1` was “inactive”.
`COc1cc2c(cc1OC)C1C(=O)c3ccc4c(c3OC1CO2)CC(C(C)C)O4` (stereo not drawn): the cytotoxicity call was “inactive”.
Still for that read-out and setting: the value for `C[C@@H](N)Cc1ccc(O)cc1` was “inactive”.
`CC(C)(C)[C@H]1CC[C@@]2(CC1)C[C@@H](C[Si](C)(C)C)OO2`: the cytotoxicity call is “inactive”.
On to `CNC(=O)Oc1cccc2ccccc12`, for which the cytotoxicity call is “inactive”.
Still for that read-out and setting: the same measure for `CN(CC[C@H](N)CC(=O)N[C@H]1C=C[C@@H](n2ccc(N)nc2=O)O[C@@H]1C(=O)O)C(=N)N`: “inactive”; for `C[C@@H]1CN([C@H](C)CO)C(=O)CCCn2nncc2CO[C@H]1CN(C)C(=O)Oc1ccc2ccccc2c1`: “inactive”; for `COc1ccc(OC(=O)N(C)C[C@H]2OCc3ccccc3-c3c(n(C)c4ccccc34)C(=O)N([C@@H](C)CO)C[C@H]2C)cc1`: “inactive”.
With `CN1C(=O)[C@]23CC4=CC=C[C@H](O)[C@H]4N2C(=O)[C@@]1(CO)SS3`, the cytotoxicity call is “active”.
The same measure, in the same setting: the same measure for `C=C(C)c1cc2cc(C(C)=O)c(O)cc2o1`: “inactive”.
With `CC(O)(CS(=O)(=O)c1ccc(F)cc1)C(=O)Nc1ccc(C#N)c(C(F)(F)F)c1` (stereo not drawn), the cytotoxicity call was “inactive”.
Same read-out and setting: the value for `CN1C(=O)C(O)N=C(c2ccccc2)c2cc(Cl)ccc21` (stereo not drawn) was “inactive”; that for `O=C1C2CCN(CC2)C1(CO)CO` was “inactive”; that for `Cc1o[nH]c(=O)c1C[C@@H](N)C(=O)O` was “inactive”.
Turning to `CC=C(C)C(=O)OC1CC(OC(C)=O)C2(C(=O)OC)COC3C2C12COC(O)(C(=O)OC)C2C(C)(C12OC1(C)C1CC2OC2OC=CC21O)C3O` (stereo not drawn), the cytotoxicity call was “inactive”.

A further experiment has as its system HepG2. In words: cytotoxicity call (relative viability < 0.9). The note with it: 10 µM.
Turning to `CC(C)=CCCC1(C)C=Cc2c(O)c3c(c(CC=C(C)C)c2O1)OC12C(=CC4CC1C(C)(C)OC2(CC=C(C)C(=O)O)C4=O)C3=O` (stereo not drawn), the cytotoxicity call was “active”.
The same measure, in the same setting: the same measure for `CN(C)[C@@H](CN)c1cn(C)c2ccccc12`: “inactive”; for `CC(O)CN1CCN(CC(=O)[O-])CCN(CC(=O)[O-])CCN(CC(=O)[O-])CC1.[Gd+3]` (stereo not drawn): “inactive”; for `NNc1ccn([C@H]2O[C@@H](CO)[C@@H](O)[C@@H]2O)c(=O)n1`: “inactive”.
Still for that read-out and setting: the value for `O=C(O)CNCP(=O)(O)O` was “inactive”.
Same read-out and setting: the same measure for `C[C@@H](N)[C@@H](O)c1ccccc1`: “inactive”.
On to `NC[C@@H](CS(=O)(=O)O)c1ccc(Cl)cc1`, for which the cytotoxicity call is “inactive”.
On the same count and under the same terms, the value for `N#C[C@]1(O)CN2CCC1CC2` was “inactive”.
For `ClC1C(Cl)C(Cl)C(Cl)C(Cl)C1Cl` (stereo not drawn), the cytotoxicity call was “inactive”.
`C[C@@H]1O[C@@H](O[C@@H]2C[C@@H](O)[C@]3(CO)[C@H]4[C@H](O)C[C@]5(C)[C@@H](C6=CC(=O)OC6)CC[C@]5(O)[C@@H]4CC[C@]3(O)C2)[C@H](O)[C@H](O)[C@H]1O`: the cytotoxicity call was “active”.
On to `CN1C[C@H]2CN[C@H]2C1`, for which the cytotoxicity call was “inactive”.
On the same count and under the same terms, the same measure for `CN1C(=O)/C(=C/c2cn(CC(=O)N3CCOCC3)c3ccccc23)C(=O)NC1=S`: “inactive”; for `COC(=O)[C@]1(Cc2ccccc2N=[N+]=[N-])N=C(c2ccc(OCCCO)cc2)O[C@@H]1c1ccccc1N=[N+]=[N-]`: “active”; for `C=CCOC(Cn1ccnc1)c1ccc(Cl)cc1Cl.O=S(=O)(O)O` (stereo not drawn): “inactive”.
Same read-out and setting: the value for `COc1ccc2cc(CCN)c(=O)[nH]c2c1` was “inactive”; that for `CC1=CC(=O)c2c(O)cccc2C1=O` was “active”; that for `O=c1[n-]c(=O)n(Cl)c(=O)n1Cl.[Na+]` was “inactive”.
On the same count and under the same terms, the same measure for `CC(C)c1ccc2c(c1O)CCC1C3=C(CCC21C)C(=O)OC3` (stereo not drawn): “inactive”; for `Cc1nc(N2CCN(C)CC2)ccc1N`: “inactive”; for `NC(=O)CN1C[C@@H](O)CC1=O`: “inactive”.
`C[C@H]1CN([C@@H](C)CO)C(=O)CCCn2cc(nn2)CO[C@H]1CN(C)C(=O)Oc1cccc2ccccc12`: the cytotoxicity call was “inactive”.
On the same count and under the same terms, the value for `COC(=O)C1CC(OC(C)=O)C(=O)C2C1(C)CCC1C(=O)OC(c3ccoc3)CC12C` (stereo not drawn) was “inactive”.
With `Br.CN1C2CC(OC(=O)C(CO)c3ccccc3)CC1C1OC12` (stereo not drawn), the cytotoxicity call was “inactive”.
The same measure, in the same setting: the same measure for `C[C@@H]1CN([C@@H](C)CO)C(=O)CCCn2cc(nn2)CO[C@@H]1CN(C)C(=O)Oc1ccc2ccccc2c1`: “inactive”; for `C1CCN(C[C@H]2CO[C@]3(CNCCOC3)C2)C1`: “inactive”; for `COc1cc2c(cc1OC)C1C(=O)c3ccc4c(c3OC1CO2)CC(C(C)C)O4` (stereo not drawn): “active”.
Still for that read-out and setting: the same measure for `C[C@@H](N)Cc1ccc(O)cc1`: “inactive”.
In the case of `CC(C)(C)[C@H]1CC[C@@]2(CC1)C[C@@H](C[Si](C)(C)C)OO2`, the cytotoxicity call is “inactive”.
Still for that read-out and setting: the value for `CNC(=O)Oc1cccc2ccccc12` was “inactive”; that for `CN(CC[C@H](N)CC(=O)N[C@H]1C=C[C@@H](n2ccc(N)nc2=O)O[C@@H]1C(=O)O)C(=N)N` was “inactive”.
The same measure, in the same setting: the value for `C[C@@H]1CN([C@H](C)CO)C(=O)CCCn2nncc2CO[C@H]1CN(C)C(=O)Oc1ccc2ccccc2c1` was “inactive”; that for `COc1ccc(OC(=O)N(C)C[C@H]2OCc3ccccc3-c3c(n(C)c4ccccc34)C(=O)N([C@@H](C)CO)C[C@H]2C)cc1` was “inactive”.
The same measure, in the same setting: the same measure for `CN1C(=O)[C@]23CC4=CC=C[C@H](O)[C@H]4N2C(=O)[C@@]1(CO)SS3`: “active”.
As to `C=C(C)c1cc2cc(C(C)=O)c(O)cc2o1`, the cytotoxicity call is “active”.
The same measure, in the same setting: the same measure for `CC(O)(CS(=O)(=O)c1ccc(F)cc1)C(=O)Nc1ccc(C#N)c(C(F)(F)F)c1` (stereo not drawn): “inactive”.
Still for that read-out and setting: the value for `CN1C(=O)C(O)N=C(c2ccccc2)c2cc(Cl)ccc21` (stereo not drawn) was “inactive”.
The same measure, in the same setting: the value for `O=C1C2CCN(CC2)C1(CO)CO` was “inactive”; that for `Cc1o[nH]c(=O)c1C[C@@H](N)C(=O)O` was “inactive”; that for `CC=C(C)C(=O)OC1CC(OC(C)=O)C2(C(=O)OC)COC3C2C12COC(O)(C(=O)OC)C2C(C)(C12OC1(C)C1CC2OC2OC=CC21O)C3O` (stereo not drawn) was “inactive”.
